# This is one part of the list.
# T1: UNK ZnF1-6 (called full-length) (human, UniProt Q9C0B0 30-357)
# T1 sequence: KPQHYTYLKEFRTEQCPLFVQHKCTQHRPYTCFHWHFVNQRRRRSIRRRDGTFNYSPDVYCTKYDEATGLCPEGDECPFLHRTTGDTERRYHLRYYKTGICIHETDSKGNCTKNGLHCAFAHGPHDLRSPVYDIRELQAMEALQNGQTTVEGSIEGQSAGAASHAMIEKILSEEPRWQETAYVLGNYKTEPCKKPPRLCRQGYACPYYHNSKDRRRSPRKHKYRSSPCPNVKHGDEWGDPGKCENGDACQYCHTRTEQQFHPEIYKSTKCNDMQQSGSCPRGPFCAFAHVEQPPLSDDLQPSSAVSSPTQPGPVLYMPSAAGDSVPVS
# B1: chr15:43184406:43184511:+|CDS|ENSG00000137842|unk|FALSE|unique (ssRNA)
# RNA: GGGAGUUCUACAGUCCGACGAUCACUGCUGUACAUCUGGCAGGUUUAUUCCUGCUACUUUCUUUAUGCAACAUACGGCACCCUAGCUUUUUUAUUCUCCCCUUUGCGGACCUGGUUGACACUGCUGACACCUGUUCUCAUUCGCAACAGAGGAUUGAGCAUCA
# B2: chr5:40568104:40569403:-|three_prime_utr|ENSG00000113638|control|control|control (ssRNA)
# RNA: GGGAGUUCUACAGUCCGACGAUCGCGUGAGACACCAUGCUCAGUCCUUAACAUCUUUCAAGGGAUGUGAUUCUUUGUGGCAGUAGAAAGGUGCUUUUGAAUUCCUGGAUCCUCUUUUAAACACUAUCAAAUUAGAAUAUACUUCAACAGAGGAUUGAGCAUCA
# B3: chr21:25606471:25606579:-|CDS|ENSG00000154719|unk|FALSE|unique (ssRNA)
# RNA: GGGAGUUCUACAGUCCGACGAUCUGAUCUCUUUAAUAAAGAGAAAGCCAGGCAGUUAUCAUUAACUCCCCGAACUGAGAAGAUAGAAGUUAAGCAUGUUGGGAAAACUGACCCCGGUACUGUCUUCGUGAUGAAUAAAAACAUCAACAGAGGAUUGAGCAUCA
# B4: chrX:85861749:85861850:-|3pUTR|ENSG00000188419|msi1|FALSE|unique (ssRNA)
# RNA: GGGAGUUCUACAGUCCGACGAUCCUAAUUUAAAAUUUCAGAAAAUGCUAUUAAAGAAUUUUGAUUCAAGUAUUUAAACUGUUUAGUUAUGCAUGCUUCUUAUUAACCGAAAAUGAUAAUACCAUUUAGUUUAGUGAUCAGUAUCAACAGAGGAUUGAGCAUCA
# B5: ENSG00000181104:stop:overlap|stop_codon|ENSG00000181104|stop_codon|NA|stop_codon (ssRNA)
# RNA: GGGAGUUCUACAGUCCGACGAUCGUAAAAUGGAUACCUGCUCUAGUAACCUGAAUAACAGCAUAUACAAAAAGCUGUUAACUUAGGAAAAGGGACUGCUGGGAGGUUAAAAAGAAAAGUUUAUAAAAGUGAAUAACCUGAGGACAACAGAGGAUUGAGCAUCA
# B6: chr2:112659350:112659462:+|CDS|ENSG00000144136|unk|FALSE|unique (ssRNA)
# RNA: GGGAGUUCUACAGUCCGACGAUCCUUGCCAAGGUGGGAGAUUGCAUGGGAGACUCCGGUGACAAACCCUUAAGGCGCAAUAAUAGCUAUACUUCCUAUACCAUGGCAAUAUGUGGCAUGCCUCUGGAUUCAUUCCGUGCCAAACAACAGAGGAUUGAGCAUCA
# B7: chr2:33399154:33399255:+|3pUTR|ENSG00000049323|msi1|FALSE|unique (ssRNA)
# RNA: GGGAGUUCUACAGUCCGACGAUCAAGUACUUUAUAUUUUCAGUGUUUUGUCUGAUUUUAAUGUCCGUUCUUAGCCAAGCUGCUAGCAGGUGUUAAUUGGAUCCCUUUCCUUCACUGAAAUGGAAGAGUUUAUAAGCUUACGUUCAACAGAGGAUUGAGCAUCA
# B8: chr5:180576808:180576909:+|3pUTR|ENSG00000113300|unk|FALSE|unique (ssRNA)
# RNA: GGGAGUUCUACAGUCCGACGAUCUAUUUUCCGUGUCCUAAAUAAUUUUCAAUAAUCUAUAAUCCCUAAAAUGCAAUAAAAACUAGUAUGUUUUCACGGUGUAUAUUUUUUUUCAAAAAUUCUGUAACAAAUAUAUUUAAUGUGCAACAGAGGAUUGAGCAUCA
# B9: chr12:39619279:39619382:-|CDS|ENSG00000173208|unk|FALSE|unique (ssRNA)
# RNA: GGGAGUUCUACAGUCCGACGAUCCGAGACCAUUUGUGAAAAACCUUCGCCUGGAGUGAAUGCAGAUUUCUUCAAACAGCUACUAGAACUUCGGAAAAUUUUGUUUCCAAAACUUGUGACCACUGAAACAGGGUGGCUCUGCCUCAACAGAGGAUUGAGCAUCA
# B10: ENSG00000198589:be:win_9551|3pUTR|ENSG00000198589|bound_else_gene|NA|bound_elsewhere_windowed (ssRNA)
# RNA: GGGAGUUCUACAGUCCGACGAUCUGUGUGGAAUUCUGUGAAAAAUAUUUGAGAAAAGGCCUGUAUUGCAUAAAUAAAUUCUUUGUAUGUUGUGAACUUUGAUCUCUAUUUCUCUUGCAACAGACUUCAAGUGGUCCCUCUUUUCAACAGAGGAUUGAGCAUCA
# B11: chr1:40073325:40073426:-|3pUTR|ENSG00000131238|msi1|FALSE|unique (ssRNA)
# RNA: GGGAGUUCUACAGUCCGACGAUCGAGGGAAGUAGCACCCAAAUUAAGUUGCUUAAGAGAGGAAAUGUACAUCUUGUAUAACUUAGGGAGCGAAGAAAAUGUAGGCGCGAAAGUGAAAAGUGAGGCAGCUAGUUCUUCCUAUUCCAACAGAGGAUUGAGCAUCA
# B12: chr21:36416827:36416928:+|3pUTR|ENSG00000159259|unk|total|mutant (ssRNA)
# RNA: GGGAGUUCUACAGUCCGACGAUCAACUUUGGAAGGCCGUUGUGUUUGUUUUCUGAUUUUAAAGGUGACGAUGCUUAUUCUUUCCGUAACUAAGUGAAGUGAAAAAGAUGGGUAUCACCCAUCAUCUUCCCACCAGAAGUAACCCAACAGAGGAUUGAGCAUCA
# B13: chr2:216672374:216672548:-|3pUTR|ENSG00000115461|msi1|total|mutant (ssRNA)
# RNA: GGGAGUUCUACAGUCCGACGAUCUUUUUCUUUUUUUUUUUGAAGACAGCAAUAACCACAGUACAUAUUACUGCCGUUCUCUACCGUUUUACAUACAUUCAUACCAUAACUCUGUUCUCUCCUCUUUUUUGUUUUCAACUUUAACAACAGAGGAUUGAGCAUCA
# B14: ENSG00000107863:be:win_6301|3pUTR|ENSG00000107863|bound_else_gene|NA|bound_elsewhere_windowed (ssRNA)
# RNA: GGGAGUUCUACAGUCCGACGAUCAUUGGUAACAGAUAUCAUUACAUUUACCAGUUUUAACACAGGUGGAUACAGAACUUCCAUUCUUUAGUCAUUCCAGGUGGAUCUGAGUUUUAUAUUCAAACUUUUAAUACAGUUUUUGAGCAACAGAGGAUUGAGCAUCA
# B15: chr12:907890:907991:+|CDS|ENSG00000060237|msi1|total|mutant (ssRNA)
# RNA: GGGAGUUCUACAGUCCGACGAUCGCCUCCUGCCAUGACGUCCAGCAGGAAGGGCACAUUCACAGAUGACUUGCACAAGUUGGCCGACAAUUGGGCCCGAGAUGCCAUGAAUCUCUCAGGCAGGAGAGGAAGCAAAGGGCACAUCAACAGAGGAUUGAGCAUCA
# B16: chr12:76029359:76029534:-|3pUTR|ENSG00000139289|msi1|FALSE|unique (ssRNA)
# RNA: GGGAGUUCUACAGUCCGACGAUCAGAAGUUUAAAAAGCUAAAAGUUAAAAAUGGUGUAAUUAUGAAAAUCUAACACUCAAGAUAGUUUCUAAAAGGAAAUCAGUAGUUAAGGAUACCUGAUUUCAAAAUAUUUAAAGCAUAACCAACAGAGGAUUGAGCAUCA
# B17: chr11:18933498:18933815:-|three_prime_utr|ENSG00000170255|control|control|control (ssRNA)
# RNA: GGGAGUUCUACAGUCCGACGAUCAGACAGGACUUUGAGAGCAACACUGCCCUGCCACCCUUGACAAUUAUAUGCGUUUUUCUUAGCCUUCUGCCUCAGAAAUGUCUCAGUGGUUCCUCAAGGUCUUCAAAUAGAUGUUUAUCUCAACAGAGGAUUGAGCAUCA
# B18: chr12:39553730:39553837:-|3pUTR|ENSG00000173208|unk|FALSE|unique (ssRNA)
# RNA: GGGAGUUCUACAGUCCGACGAUCGAAGUAUGUUAAGCUAAGCACAGAGAAAAAAAGGCAGCAAGACAUGUUUUAUAAGAUUUUAGCAUUAAGGAAGUAUAUGAUCUGACUUUUCAGAAGAAAAUAAACAAAUGCAUUAUGUAACAACAGAGGAUUGAGCAUCA
# B19: chr1:112701350:112701454:-|3pUTR|ENSG00000155366|unk|total|mutant (ssRNA)
# RNA: GGGAGUUCUACAGUCCGACGAUCGGCUCCAUGCUGAAGGCUCCCAUUUUCAGUUCCCUCCUGCCCAGGACUGCAUUGUUUUCCCGCCCCGAGGUGGUGGCACGGGCCCUCCCUCCCAGCGCUCUGGGAGCCACGCCUAUGCCCCAACAGAGGAUUGAGCAUCA
# B20: chr1:248850005:248850516:-|three_prime_utr|ENSG00000171163|control|control|control (ssRNA)
# RNA: GGGAGUUCUACAGUCCGACGAUCUUCCCCUGUGAAUUCUGCGGCAAGCGCUUUGAGAAGCCAGACAGUGUUGCAGCCCACCGUAGCAAAAGUCACCCAGCCCUGCUUCUAGCCCCUCAAGAGUCACCCAGUGGUCCCCUAGAGCAACAGAGGAUUGAGCAUCA
# B21: ENSG00000136451:be:win_951|CDS|ENSG00000136451|bound_else_gene|NA|bound_elsewhere_windowed (ssRNA)
# RNA: GGGAGUUCUACAGUCCGACGAUCUACAUGUAAACAAGGCAUCAGUAAAACAUGCAUGAGUGAAGAGACCAGUAACCAAAAGCAGCAGCAGCAGCAGCAGCAGCAGCAGCAGCAGCAGCAACAACAACAACAACAACAUGUGACCAACAGAGGAUUGAGCAUCA
# B22: chr11:118373572:118373686:+|CDS|ENSG00000110344|unk|FALSE|bound_elsewhere (ssRNA)
# RNA: GGGAGUUCUACAGUCCGACGAUCGAAGACCUUGCUGGGAGUAAUUCUGAGUAUCUCCUGCUUAUUAAAGACUCCGGGUGUUGUAGAAAAUCAUGGCUACUUUUUGAAUCCAUCUCGUUCCAGCCCCCAGGAGAUCAAAGUACACAACAGAGGAUUGAGCAUCA
# Biological target: T1, UNK ZnF1-6 (called full-length)
# Experiment: nsRBNS (natural sequence RNA bind-n-seq); RBNS binding buffer (assumed for nsRBNS): 25 mM Tris pH 7.5, 150 mM KCl, 3 mM MgCl2, 0.01% Triton X-100, 500 ug/ml BSA, 20 U/ml SUPERase-In, 4 C; UNK is unkempt and MSI1 is Musashi-1; names of the RNAs are library labels; protein concentration not given here; high values mean tight binding
row,Binder,binding signal [enrichment R]
1,B1,2.15
2,B2,4.47
3,B3,0.399
4,B4,2.27
5,B5,0.513
6,B6,0.72
7,B7,0.428
8,B8,20.9
9,B9,0.459
10,B10,0.54
11,B11,0.9
12,B12,0.212
13,B13,1.89
14,B14,2.39
15,B15,0.784
16,B16,1.92
17,B17,1.46
18,B18,0.997
19,B19,0.958
20,B20,0.925
21,B21,0.641
22,B22,0.611
